# Experimental data as given in the supplement of paper PMC8728848.
# The other results are listed elsewhere or left out.
# Key:
# Assay in all cases: glycan array binding signal (z-score within array); higher = stronger binding
# Conditions in all cases: glycan notation: IUPAC condensed, linker removed
# [1] = target: Neu5Ac(a2-3)Gal(b1-3)[Fuc(a1-4)]GlcNAc
# In short: (§1)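 The binding signal is a Z-score computed within each array. Data were drawn from 3228 arrays in the Consortium for Functional Glycomics database, restricted to those with a known protein sequence. Scores were averaged over arrays of the same protein sequence at different concentrations or buffers, and over linkers, and negative values can be taken as non-binding.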
# [2] = target: Neu5Ac(a2-3)Gal(b1-3)[Fuc(a1-4)]GlcNAc(b1-3)Gal(b1-3)[Fuc(a1-4)]GlcNAc
# In short: as §1
# [3] = target: Neu5Ac(a2-3)Gal(b1-3)[Fuc(a1-4)]GlcNAc(b1-3)Gal(b1-4)[Fuc(a1-3)]GlcNAc
# In short: as §1
# [4] = target: Neu5Ac(a2-3)Gal(b1-3)[GlcNAc(b1-6)]GalNAc
# In short: as §1
# [5] = target: Neu5Ac(a2-3)Gal(b1-3)[Neu5Ac(a2-6)]GalNAc
# In short: as §1
# [6] = target: Neu5Ac(a2-3)Gal(b1-3)[Neu5Ac(a2-6)]GlcNAc(b1-3)[Fuc(a1-3)[Gal(b1-4)]GlcNAc(b1-6)]Gal(b1-4)Glc
# In short: as §1
# [7] = target: Neu5Ac(a2-3)Gal(b1-3)]Neu5Ac(a2-3)Gal(b1-4)]GlcNAc
# In short: as §1
# [8] = target: Neu5Ac(a2-3)Gal(b1-4)Glc
# In short: as §1
# [9] = target: Neu5Ac(a2-3)Gal(b1-4)GlcNAc
# In short: as §1
# [10] = target: Neu5Ac(a2-3)Gal(b1-4)GlcNAc(b1-2)Man
# In short: as §1
# [11] = target: Neu5Ac(a2-3)Gal(b1-4)GlcNAc(b1-2)Man(a1-3)[GlcNAc(b1-4)][Neu5Ac(a2-3)Gal(b1-4)GlcNAc(b1-2)Man(a1-6)]Man(b1-4)GlcNAc(b1-4)GlcNAc
# In short: as §1
# [12] = target: Neu5Ac(a2-3)Gal(b1-4)GlcNAc(b1-2)Man(a1-3)[Neu5Ac(a2-3)Gal(b1-4)GlcNAc(b1-2)Man(a1-6)]Man(b1-4)GlcNAc(b1-4)GlcNAc
# In short: as §1
# [13] = target: Neu5Ac(a2-3)Gal(b1-4)GlcNAc(b1-2)Man(a1-3)[Neu5Ac(a2-3)Gal(b1-4)GlcNAc(b1-2)Man(a1-6)]Man(b1-4)GlcNAc(b1-4)[Fuc(a1-6)]GlcNAc
# In short: as §1
# [14] = target: Neu5Ac(a2-3)Gal(b1-4)GlcNAc(b1-2)Man(a1-3)[Neu5Ac(a2-6)Gal(b1-4)GlcNAc(b1-2)Man(a1-6)]Man(b1-4)GlcNAc(b1-4)GlcNAc
# In short: as §1
# [15] = target: Neu5Ac(a2-3)Gal(b1-4)GlcNAc(b1-2)[Neu5Ac(a2-3)Gal(b1-4)GlcNAc(b1-4)]Man(a1-3)[GlcNAc(b1-4)][Neu5Ac(a2-3)Gal(b1-4)GlcNAc(b1-2)[Neu5Ac(a2-3)Gal(b1-4)GlcNAc(b1-6)]Man(a1-6)]Man(b1-4)GlcNAc(b1-4)GlcNAc
# In short: as §1
# [16] = target: Neu5Ac(a2-3)Gal(b1-4)GlcNAc(b1-2)[Neu5Ac(a2-3)Gal(b1-4)GlcNAc(b1-4)]Man(a1-3)[GlcNAc(b1-4)][Neu5Ac(a2-3)Gal(b1-4)GlcNAc(b1-4)Man(a1-6)]Man(b1-4)GlcNAc(b1-4)GlcNAc
# In short: as §1
# [17] = target: Neu5Ac(a2-3)Gal(b1-4)GlcNAc(b1-2)[Neu5Ac(a2-3)Gal(b1-4)GlcNAc(b1-6)]Man(a1-6)[Neu5Ac(a2-3)Gal(b1-4)GlcNAc(b1-2)Man(a1-3)]Man(b1-4)GlcNAc(b1-4)GlcNAc
# In short: as §1
# [18] = target: Neu5Ac(a2-3)Gal(b1-4)GlcNAc(b1-2)[Neu5Ac(a2-3)Gal(b1-4)GlcNAc(b1-6)]Man(a1-6)[Neu5Ac(a2-3)Gal(b1-4)GlcNAc(b1-2)Man(a1-3)][GlcNAc(b1-4)]Man(b1-4)GlcNAc(b1-4)GlcNAc
# In short: as §1
# [19] = target: Neu5Ac(a2-3)Gal(b1-4)GlcNAc(b1-3)Gal
# In short: as §1
# [20] = target: Neu5Ac(a2-3)Gal(b1-4)GlcNAc(b1-3)Gal(b1-3)GlcNAc
# In short: as §1
# [21] = target: Neu5Ac(a2-3)Gal(b1-4)GlcNAc(b1-3)Gal(b1-4)GlcNAc
# In short: as §1
# [22] = target: Neu5Ac(a2-3)Gal(b1-4)GlcNAc(b1-3)Gal(b1-4)GlcNAc(b1-2)Man(a1-3)[Neu5Ac(a2-3)Gal(b1-4)GlcNAc(b1-3)Gal(b1-4)GlcNAc(b1-2)Man(a1-6)]Man(b1-4)GlcNAc(b1-4)GlcNAc
# In short: as §1
# [23] = target: Neu5Ac(a2-3)Gal(b1-4)GlcNAc(b1-3)Gal(b1-4)GlcNAc(b1-3)Gal(b1-4)GlcNAc
# In short: as §1
# [24] = target: Neu5Ac(a2-3)Gal(b1-4)GlcNAc(b1-3)Gal(b1-4)GlcNAc(b1-3)Gal(b1-4)GlcNAc(b1-2)Man(a1-3)[Neu5Ac(a2-3)Gal(b1-4)GlcNAc(b1-3)Gal(b1-4)GlcNAc(b1-3)Gal(b1-4)GlcNAc(b1-2)Man(a1-6)]GalNAc
# In short: as §1
# [25] = target: Neu5Ac(a2-3)Gal(b1-4)GlcNAc(b1-3)Gal(b1-4)GlcNAc(b1-3)GalNAc
# In short: as §1
# [26] = target: Neu5Ac(a2-3)Gal(b1-4)GlcNAc(b1-3)Gal(b1-4)GlcNAc(b1-3)[Neu5Ac(a2-3)Gal(b1-4)GlcNAc(b1-3)Gal(b1-4)GlcNAc(b1-6)]GalNAc
# In short: as §1
# [27] = target: Neu5Ac(a2-3)Gal(b1-4)GlcNAc(b1-3)Gal(b1-4)GlcNAc(b1-6)[Gal(b1-3)]GalNAc
# In short: as §1
# [28] = target: Neu5Ac(a2-3)Gal(b1-4)GlcNAc(b1-3)Gal(b1-4)[Fuc(a1-3)]GlcNAc
# In short: as §1
# [29] = target: Neu5Ac(a2-3)Gal(b1-4)GlcNAc(b1-3)GalNAc
# In short: as §1
# [30] = target: Neu5Ac(a2-3)Gal(b1-4)GlcNAc(b1-3)[Neu5Ac(a2-3)Gal(b1-4)GlcNAc(b1-6)]GalNAc
# In short: as §1
binder,measurement,setting,value
"Langerin K313I (Homo sapiens), Q9UJ71 (protein) STLNAQIPELKSDLEKASALNTKIRALQGSLENMSKLLKRQNDILQVVSQGWKYFKGNFYYFSLIPKTWYSAEQFCVSRNSHLTSVTSESEQEFLYKTAGGLIYWIGLTKAGMEGDWSWVDDTPFNKVQSARFWIPGEPNNAGNNEHCGNIKAPSLQAWNDAPCDITFLFICKRPYVPSEP",glycan array binding signal (z-score),[1],-0.412
same,glycan array binding signal (z-score),[2],0.117
same,glycan array binding signal (z-score),[3],0.383
same,glycan array binding signal (z-score),[4],-0.289
same,glycan array binding signal (z-score),[5],-0.044
same,glycan array binding signal (z-score),[6],-0.347
same,glycan array binding signal (z-score),[7],-0.394
same,glycan array binding signal (z-score),[8],-0.095
same,glycan array binding signal (z-score),[9],-0.341
same,glycan array binding signal (z-score),[10],0.555
same,glycan array binding signal (z-score),[11],-0.345
same,glycan array binding signal (z-score),[12],-0.321
same,glycan array binding signal (z-score),[13],0.123
same,glycan array binding signal (z-score),[14],-0.355
same,glycan array binding signal (z-score),[15],-0.368
same,glycan array binding signal (z-score),[16],-0.382
same,glycan array binding signal (z-score),[17],0.056
same,glycan array binding signal (z-score),[18],-0.36
same,glycan array binding signal (z-score),[19],-0.394
same,glycan array binding signal (z-score),[20],-0.315
same,glycan array binding signal (z-score),[21],-0.396
same,glycan array binding signal (z-score),[22],-0.019
same,glycan array binding signal (z-score),[23],-0.27
same,glycan array binding signal (z-score),[24],0.363
same,glycan array binding signal (z-score),[25],-0.308
same,glycan array binding signal (z-score),[26],-0.089
same,glycan array binding signal (z-score),[27],-0.114
same,glycan array binding signal (z-score),[28],-0.297
same,glycan array binding signal (z-score),[29],-0.361
same,glycan array binding signal (z-score),[30],-0.216
